Some of the results follow. Rule as the data show it: active = 3.2 or more and inactive = the rest. Most of these values are background signal.
How the values were obtained:
Assay in all cases: enrichment score (SH2-bound / input frequency) (ratio); bacterial display of known human phosphotyrosine sites (pTyr-Var adds point mutants) read by sequencing; higher = stronger binding; tyrosines were phosphorylated by kinases first
Details in all cases: peptide library: pTyr-Var
SHP2 C-SH2 domain E139D = target: SHP2 C-SH2 domain E139D
[1] = target: SHP2 C-SH2 domain wild-type
SHP2 N-SH2 domain L43F = target: SHP2 N-SH2 domain L43F
SHP2 N-SH2 domain T42A = target: SHP2 N-SH2 domain T42A
SHP2 N-SH2 domain T52S = target: SHP2 N-SH2 domain T52S
[2] = target: SHP2 N-SH2 domain wild-type
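Also: displayed peptides selected on beads carrying the immobilized SH2 domain, with library peptides lacking any tyrosine serving as negative controls.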

| Binder | enrichment score (SHP2 C-SH2 domain E139D) | enrichment score [1] | enrichment score (SHP2 N-SH2 domain L43F) | enrichment score (SHP2 N-SH2 domain T42A) | enrichment score (SHP2 N-SH2 domain T52S) | enrichment score [2] |
| --- | --- | --- | --- | --- | --- | --- |
| ESMQSYDLDFP [UNC13B_Y243_D238E_YF] | inactive: 0.527 | inactive: 0.327 | inactive: 0.436 | inactive: 0.404 | inactive: 0.402 | inactive: 0.508 |
| RDIHDYIKHLG [UNC13C_Y308] | inactive: 0.889 | inactive: 0.847 | inactive: 0.763 | inactive: 0.806 | inactive: 0.869 | inactive: 0.867 |
| QRALLYEDALF [UNC13D_Y56_YF] | inactive: 0.894 | inactive: 0.882 | inactive: 1.14 | inactive: 1.53 | inactive: 1.09 | inactive: 0.959 |
| FEDTLYTVLHR [UNC13D_Y61_A59T_YF] | inactive: 1.09 | inactive: 1.38 | inactive: 1.23 | inactive: 0.89 | inactive: 1.06 | inactive: 1.82 |
| FEDALYTVLHR [UNC13D_Y61_YF] | inactive: 1.05 | inactive: 0.973 | inactive: 1.41 | inactive: 1.04 | inactive: 1.16 | inactive: 1.23 |
| LPPGTYPSDFA [UNC5B_Y511] | inactive: 0.688 | inactive: 0.789 | inactive: 0.768 | inactive: 0.554 | inactive: 0.691 | inactive: 0.9 |
| LPPGTYPSDFT [UNC5B_Y511_A516T] | inactive: 0.431 | inactive: 0.57 | inactive: 0.816 | inactive: 0.563 | inactive: 0.632 | inactive: 0.407 |
| GQKTLYSFFSP [UNG_Y8] | inactive: 1.19 | inactive: 1.54 | inactive: 1.19 | inactive: 1.32 | inactive: 1.13 | inactive: 1.19 |
| KMTGRYEMYAR [UPB1_Y362] | inactive: 1.11 | inactive: 1.11 | inactive: 1.06 | inactive: 1.1 | inactive: 1.08 | inactive: 0.993 |
| KMMGRYEMFAR [UPB1_Y362_T359M_YF] | inactive: 1.48 | inactive: 1.24 | inactive: 1.42 | inactive: 1.37 | inactive: 1.56 | inactive: 1.41 |
| GADAIYDHVNE [UQCR10_Y44_I47V] | inactive: 0.547 | inactive: 0.526 | inactive: 0.634 | inactive: 0.471 | inactive: 0.515 | inactive: 0.571 |
| ADLTEYLSTHY [UQCRC1_Y219] | inactive: 0.846 | inactive: 0.775 | inactive: 0.828 | inactive: 0.736 | inactive: 0.893 | inactive: 0.808 |
| AHLTEYLSTHF [UQCRC1_Y219_D215H_YF] | inactive: 1.02 | inactive: 1.24 | inactive: 1.05 | inactive: 2.27 | inactive: 1.2 | inactive: 1.1 |
| LHAAAYQNALA [UQCRC2_Y182_R183Q] | inactive: 1.51 | inactive: 1.28 | inactive: 1.51 | inactive: 1.12 | inactive: 1.32 | inactive: 1.29 |
| LHAAAYWNALA [UQCRC2_Y182_R183W] | inactive: 1.58 | inactive: 1.9 | inactive: 1.56 | inactive: 2.3 | inactive: 1.74 | inactive: 2.07 |
| MVIPNYSSRTE [UROC1_Y185] | inactive: 0.924 | inactive: 0.796 | inactive: 0.929 | inactive: 0.626 | inactive: 1.09 | inactive: 0.969 |
| MVIPNYSSWTE [UROC1_Y185_R188W] | inactive: 1.28 | inactive: 1.03 | inactive: 0.868 | inactive: 1.24 | inactive: 1.17 | inactive: 1.12 |
| EEETDYTPVWC [UROD_Y30_G25E] | inactive: 0.676 | inactive: 0.852 | inactive: 0.529 | inactive: 0.77 | inactive: 0.553 | inactive: 1.02 |
| CGQDPYIRELG [UROS_Y19] | inactive: 0.711 | inactive: 1.01 | inactive: 0.881 | inactive: 0.789 | inactive: 0.775 | inactive: 1.38 |

| Binder | enrichment score (SHP2 C-SH2 domain E139D) | enrichment score [1] | enrichment score (SHP2 N-SH2 domain L43F) | enrichment score (SHP2 N-SH2 domain T42A) | enrichment score (SHP2 N-SH2 domain T52S) | enrichment score [2] |
| --- | --- | --- | --- | --- | --- | --- |
| DSILVYQRKEQ [USH2A_Y1909_G1911R] | inactive: 0.687 | inactive: 0.606 | inactive: 0.604 | inactive: 0.446 | inactive: 0.795 | inactive: 0.651 |
| GVIKEYQIRQV [USH2A_Y3623] | inactive: 0.886 | inactive: 0.625 | inactive: 0.757 | inactive: 0.549 | inactive: 0.61 | inactive: 0.784 |
| SVIKEYQIRQV [USH2A_Y3623_G3618S] | inactive: 0.84 | inactive: 0.714 | inactive: 0.794 | inactive: 0.815 | inactive: 0.668 | inactive: 0.912 |
| EPNSRYTFKLE [USH2A_Y3745_YF] | inactive: 0.799 | inactive: 0.705 | inactive: 0.624 | inactive: 0.663 | inactive: 0.783 | inactive: 0.759 |
| NSRFTCKLEVK [USH2A_Y3747_Y3747C_YF] | inactive: 0.797 | inactive: 0.889 | inactive: 0.829 | inactive: 0.655 | inactive: 0.592 | inactive: 1.23 |
| TPGPNYRPGYN [USH2A_Y463] | inactive: 0.474 | inactive: 0.565 | inactive: 0.552 | inactive: 0.508 | inactive: 0.943 | inactive: 0.771 |
| TPGPNYCPGYN [USH2A_Y463_R464C] | inactive: 0.321 | inactive: 0.451 | inactive: 1 | inactive: 0.614 | inactive: 0.536 | inactive: 0.763 |
| NYCPGYNNFYN [USH2A_Y467_R464C] | inactive: 1.07 | inactive: 1.43 | inactive: 1.07 | inactive: 1.15 | inactive: 1.13 | inactive: 1.26 |
| NFCPGYNNFFN [USH2A_Y467_R464C_YF] | inactive: 1.04 | inactive: 1.16 | inactive: 1.18 | inactive: 1.45 | inactive: 1.11 | inactive: 1.11 |
| TTSQPYRRLCS [USH2A_Y534_C536R] | inactive: 0.442 | inactive: 0.422 | inactive: 0.456 | inactive: 0.273 | inactive: 0.501 | inactive: 0.263 |
| VFDMLYQLANL [USP24_Y1087] | active: 3.21 | inactive: 2.55 | inactive: 2.83 | inactive: 2.35 | inactive: 3.16 | inactive: 2.8 |
| KNRDVSSSDYF [USP24_Y2134_Y2134S] | inactive: 0.466 | inactive: 0.437 | inactive: 0.485 | inactive: 0.511 | inactive: 0.4 | inactive: 0.668 |
| KNRDVSSSDFF [USP24_Y2134_Y2134S_YF] | inactive: 0.564 | inactive: 0.59 | inactive: 0.688 | inactive: 0.528 | inactive: 0.543 | inactive: 0.865 |
| VYSSDYFSFVL [USP24_Y2138] | inactive: 0.98 | inactive: 0.822 | inactive: 1.04 | inactive: 0.7 | inactive: 0.889 | inactive: 0.863 |
| VFSSDYFSFVL [USP24_Y2138_YF] | inactive: 0.966 | inactive: 1.07 | inactive: 0.876 | inactive: 0.919 | inactive: 0.78 | inactive: 0.841 |
| KLKRSYSSPDI [USP8_Y717] | inactive: 0.54 | inactive: 0.541 | inactive: 0.775 | inactive: 0.581 | inactive: 0.595 | inactive: 0.614 |
| KLKRSYCSPDI [USP8_Y717_S718C] | inactive: 0.835 | inactive: 0.837 | inactive: 0.785 | inactive: 0.621 | inactive: 0.551 | inactive: 0.882 |
| KDFTIYNPNLL [VANGL1_Y290] | inactive: 1.05 | inactive: 0.885 | inactive: 1.1 | inactive: 0.855 | inactive: 1.06 | inactive: 1.15 |

Source: the supplement of paper PMC10369915
